# The campaign covered roughly 340,000 compounds. About 12,000 (3.5%) were called active. Inconclusive means that the source gave no clear call. Such entries were picked first, then a sample of the others. Calls follow the shape of the dose curve; as a rule, active = well fitted inhibition curve with a large enough effect; inconclusive = small, poorly fitted or top-dose-only effect, or another doubt; inactive = no such curve, though single readings can be large or run the other way. No potency is given beside an inconclusive call; the fits are too rough.
# Assay: qHTS Assay for Inhibitors of Hepatitis C Virus (HCV)
# Settings: Huh7.5.1 HCVcc-Cre (HCVcc is cell-culture hepatitis C virus) infection, luciferase reporter, 44 h; series mostly up to 41.8 µM
# In short: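 Cells seeded at 1,000/well and cultured 4 h, then compounds added followed by HCVcc-Cre virus (~0.5 moi). After 44 h further culture, luciferase substrate was added, plates held 15 min at room temperature, and luminescence read for 15 sec.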
# Potency is read from the fitted curve at half-maximal effect; tags tell the direction and shape of the fitted curve.
row,SMILES,Potency
1,Cc1ccc(N2CC(C(=O)OCc3nc(N)nc(Nc4ccccc4C)n3)CC2=O)cc1 (centres undefined),inactive
2,COc1ccc(-c2cc(C(=O)Nc3cc(C)ccc3O)no2)cc1,"inconclusive [inhibitor, partial curve, poor fit]"
3,CC1(C)CC(=O)C(C=Nc2cc(C(=O)c3ccccc3)ccc2N)=C(O)C1,"inconclusive [inhibitor, partial curve]"
4,CCCCn1c(CN2CCN(c3cccc(Cl)c3)CC2)nc2c1c(=O)n(C)c(=O)n2C,"inconclusive [inhibitor, single point]"
5,C/C=C/c1ccc(OCCCCN(C)Cc2ccccc2)c(OC)c1,active: 11.2 µM
6,Cc1cc(=O)oc2cc(NC(=O)CCOc3ccccc3)ccc12,"inconclusive [inhibitor, partial curve]"
7,CSc1ccc(CN2CCN(C(=O)CC(C)C)CC2)cc1,active: 11.2 µM
8,CC(C)c1ccc(/C=N/NC(=O)CCNC(=O)c2ccccc2)cc1,inactive
9,CCCCN(C(=O)C1CC(=O)N(CCc2ccc(OC)c(OC)c2)C1)c1c(N)n(CCCC)c(=O)[nH]c1=O (centres undefined),"inconclusive [inhibitor, partial curve]"
10,Cc1ccc(-c2nnc(SCC(=O)N/N=C/c3ccc(C(=O)O)cc3)n2C2CCCCC2)cc1,inactive
11,COc1ccc(F)cc1S(=O)(=O)n1cc(C)nc1-c1ccccc1,inactive
12,Cc1nc2ccc(NS(=O)(=O)c3ccccc3Cl)cc2s1,"inconclusive [inhibitor, single point]"
13,N#Cc1c(C(F)(F)F)cc(=O)n2c1[nH]c1ccccc12,"inconclusive [inhibitor, single point]"
14,CC(C)Oc1ccc(S(=O)(=O)N2CCCCC2)cc1NC(=O)C1=COCCO1,"inconclusive [inhibitor, single point]"
15,O=S(=O)(c1cccs1)N1CCN(CCOc2ccccc2)CC1,"inconclusive [inhibitor, partial curve, poor fit]"
16,Cc1cc2nc(SCC(=O)N(C)C)c3c(c2cc1C)CCCC3,"inconclusive [inhibitor, partial curve]"
17,Cc1cc(NC(=O)CCC(=O)N(Cc2cccs2)C(C(=O)NC2CCCC2)c2ccccc2)no1 (centres undefined),"inconclusive [inhibitor, partial curve]"
18,COc1ccc(C(=O)NCC(C)C)c(OC)c1,"inconclusive [inhibitor, partial curve]"
19,CN1C(C(=O)NCc2ccc(OC(F)(F)F)cc2)CC2Cn3c(nc4ccccc43)C21 (centres undefined),"inconclusive [inhibitor, single point]"

# Source: PubChem BioAssay AID651820 (National Center for Advancing Translational Sciences (NCATS), 2012)
